In the supplement of paper PMC11876631:
Substitutions are numbered along the chain they refer to. Numbers in names are those of the source. ± gives the standard deviation of the averaged measurements. Laboratory Escherichia coli strains with one amino-acid change in an essential protein, pooled on minimal glucose agar with carbenicillin or gentamicin at twice the control MIC (plus kanamycin and chloramphenicol for the plasmids), 48 h. Fold change of barcode share against drug-free plates; higher = less susceptible. Active = above 20 in both replicates (the paper's putatively resistant). '<' = one read or none on drug, '>' = one read or none on a drug-free plate. Shares are relative, so most strains fall below 1 when a few take over. Listed are strains with at least 15 reads on both drug-free plates, and hits; most hits rest on fewer reference reads. Replicate rank correlation about 0.5. Edits are read from barcodes.

B1: purA L53A (protein)
chain: MGNNVVVLGTQWGDEGKGKIVDLLTERAKYVVRYQGGHNAGHTLVINGEKTVAHLIPSGILRENVTSIIGNGVVLSPAALMKEMKELEDRGIPVRERLLLSEACPLILDYHVALDNAREKARGAKAIGTTGRGIGPAYEDKVARRGLRVGDLFDKETFAEKLKEVMEYHNFQLVNYYKAEAVDYQKVLDDTMAVADILTSMVVDVSDLLDQARQRGDFVMFEGAQGTLLDIDHGTYPYVTSSNTTAGGVATGSGLGPRYVDYVLGILKAYSTRVGAGPFPTELFDETGEFLCKQGNEFGATTGRRRRTGWLDTVAVRRAVQLNSLSGFCLTKLDVLDGLKEVKLCVAYRMPDGREVTTTPLAADDWKGVEPIYETMPGWSESTFGVKDRSGLPQAALNYIKRIEELTGVPIDIISTGPDRTETMILRDPFDA
B2: purA L53W (protein)
chain: B1 chain with A53W
B3: purA L53Q (protein)
chain: B1 chain with A53Q
B4: pssA I370Q (protein)
chain: MLSKFKRNKHQQHLAQLPKISQSVDDVDFFYAPADFRETLLEKIASAKQRICIVALYLEQDDGGKGILNALYEAKRQRPELDVRVLVDWHRAQRGRIGAAASNTNADWYCRMAQENPGVDVPVYGVPINTREALGVLHFKGFIIDDSVLYSGASLNDVYLHQHDKYRYDRYHLIRNRKMSDIMFEWVTQNIMNGRGVNRLDDVNRPKSPEIKNDIRLFRQELRDAAYHFQGDADNDQLSVTPLVGLGKSSLLNKTIFHLMPCAEQKLTICTPYFNLPAILVRNIIQLLREGKKVEIIVGDKTANDFYIPEDEPFKIIGALPYLYEINLRRFLSRLQYYVNTDQLVVRLWKDDDNTYHLKGMWVDDKWMLQTGNNLNPRAWRLDLENAILIHDPQLELAPQREKELELIREHTTIVKHYRDLQSIADYPVKVRKLIRRLRRIRIDRLISRIL
B5: pssA M260P (protein)
chain: B4 chain with M260P, Q370I
B6: pssA L369A (protein)
chain: B4 chain with L369A, Q370I
B7: pssA I370D (protein)
chain: B4 chain with Q370D
B8: pssA L369W (protein)
chain: B4 chain with L369W, Q370I
B9: pssA I370P (protein)
chain: B4 chain with Q370P
B10: pssA V54P (protein)
chain: B4 chain with V54P, Q370I
B11: pssA V54A (protein)
chain: B4 chain with V54A, Q370I

target: Escherichia coli (laboratory strain); assay: barcode share on antibiotic plates over drug-free plates; higher = less susceptible; settings: antibiotic: carbenicillin; 2× MIC (3.1 µg/mL)
Procedure: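 A pool of E. coli strains, each edited to carry one amino-acid change in an essential protein, was grown for 48 h on minimal glucose agar with or without antibiotic; strain barcodes were sequenced; mean of two replicates.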

**Q.** How did the “fold change of barcode share” value turn out when B1 was run?
**A.** 0.484 ± 0.23

**Q.** For B2, which “fold change of barcode share” value is on record?
**A.** > 154 [active]

**Q.** For B3, which “fold change of barcode share” value is on record?
**A.** 0.506 ± 0.044

**Q.** With B4 as the protein, how does the “fold change of barcode share” value read?
**A.** 0.2 ± 0.021

**Q.** For B5, which “fold change of barcode share” value is on record?
**A.** 0.62 ± 0.61

**Q.** For B6, which “fold change of barcode share” value is on record?
**A.** 0.561 ± 0.17

**Q.** With B7 as the protein, how does the “fold change of barcode share” value read?
**A.** 0.157 ± 0.036

**Q.** Which “fold change of barcode share” value does the source give for B8 here?
**A.** 0.242 ± 0.0031

**Q.** For B9, which “fold change of barcode share” value is on record?
**A.** 0.394 ± 0.29

**Q.** For B10, which “fold change of barcode share” value is on record?
**A.** 0.285 ± 0.16

**Q.** With B11 as the protein, how does the “fold change of barcode share” value read?
**A.** 0.336 ± 0.031

same assay, conditions: antibiotic: gentamicin; 2× MIC (MIC 0.45 µg/mL)

**Q.** For B1, which “fold change of barcode share” value is on record?
**A.** < 0.0175

**Q.** Which “fold change of barcode share” value does the source give for B3 here?
**A.** < 0.0115

**Q.** B4 was tested. Which “fold change of barcode share” value did it give?
**A.** < 0.00973

**Q.** With B5 as the protein, how does the “fold change of barcode share” value read?
**A.** < 0.015

**Q.** Which “fold change of barcode share” value does the source give for B6 here?
**A.** < 0.0129

**Q.** Which “fold change of barcode share” value does the source give for B7 here?
**A.** < 0.0131

**Q.** Which “fold change of barcode share” value does the source give for B8 here?
**A.** < 0.0169

**Q.** Which “fold change of barcode share” value does the source give for B9 here?
**A.** < 0.0143

**Q.** Which “fold change of barcode share” value does the source give for B10 here?
**A.** < 0.0152

**Q.** With B11 as the protein, how does the “fold change of barcode share” value read?
**A.** < 0.0123
